Screen size: about 310,000 compounds; about 2,200 (0.71%) showed an effect of 50% or more. The effect is printed as a negative number. Some of the results follow.
Biological target: human ether-à-go-go-related gene (hERG) potassium channel (human, UniProt Q12809)
Test: primary screen, population patch clamp on CHO cells stably expressing hERG

human ether-à-go-go-related gene (hERG) potassium channel, sequence (Q12809 whole entry, looked up): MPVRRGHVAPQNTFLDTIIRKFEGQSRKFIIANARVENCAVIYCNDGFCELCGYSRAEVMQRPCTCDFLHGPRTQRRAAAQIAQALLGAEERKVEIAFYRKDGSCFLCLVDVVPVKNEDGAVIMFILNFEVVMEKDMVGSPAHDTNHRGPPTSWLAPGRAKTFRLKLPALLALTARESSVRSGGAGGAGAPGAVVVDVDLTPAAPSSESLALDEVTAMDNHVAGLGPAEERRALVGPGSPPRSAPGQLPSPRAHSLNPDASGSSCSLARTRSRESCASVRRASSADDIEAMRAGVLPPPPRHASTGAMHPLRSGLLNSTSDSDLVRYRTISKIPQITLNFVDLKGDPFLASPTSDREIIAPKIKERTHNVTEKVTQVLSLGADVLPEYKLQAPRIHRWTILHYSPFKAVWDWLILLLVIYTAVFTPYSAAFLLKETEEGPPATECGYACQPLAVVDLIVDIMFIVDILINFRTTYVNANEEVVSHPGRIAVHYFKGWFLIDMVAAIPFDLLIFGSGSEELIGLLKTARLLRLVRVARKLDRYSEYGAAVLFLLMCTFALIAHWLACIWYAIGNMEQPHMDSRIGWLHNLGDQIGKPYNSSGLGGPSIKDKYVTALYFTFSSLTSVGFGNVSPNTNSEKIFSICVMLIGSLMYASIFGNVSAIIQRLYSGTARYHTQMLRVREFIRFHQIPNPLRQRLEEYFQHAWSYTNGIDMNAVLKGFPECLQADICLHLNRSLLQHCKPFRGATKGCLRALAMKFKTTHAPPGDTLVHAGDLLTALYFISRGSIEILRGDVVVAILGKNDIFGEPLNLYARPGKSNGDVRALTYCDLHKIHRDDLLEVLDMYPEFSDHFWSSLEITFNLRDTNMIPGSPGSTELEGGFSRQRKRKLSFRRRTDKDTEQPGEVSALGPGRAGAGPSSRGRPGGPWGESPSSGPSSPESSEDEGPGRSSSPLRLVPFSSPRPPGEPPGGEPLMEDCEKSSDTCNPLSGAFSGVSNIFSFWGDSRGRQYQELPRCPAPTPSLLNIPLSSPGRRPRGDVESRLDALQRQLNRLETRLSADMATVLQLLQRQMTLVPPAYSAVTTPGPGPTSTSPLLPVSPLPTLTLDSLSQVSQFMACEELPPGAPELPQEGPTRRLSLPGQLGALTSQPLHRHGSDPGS

SMILES | hERG current change (%, negative = inhibition) at 1uM [%]
O=[N+]([O-])c1cc(Cl)cc(/C=N/NC(=S)Nc2cc(S(=O)(=O)N3CCOCC3)ccc2Cl)c1O | 13.6
O=C(N/C(=C\c1ccc2c(c1)OCO2)C(=O)N1CCOCC1)c1cccs1 | -18.7
Cc1nnc(SCC(=O)Nc2nccs2)o1 | 11.7
O=C(NCCN1CCCCC1)c1ccc(Oc2cc(Cl)cc(Cl)c2)o1 | 5.95
COc1ccc(S(=O)(=O)N(C)CC(=O)Nc2cccc(C(C)=O)c2)cc1 | 13.1
Cc1ccc(-c2cc(-c3ccc(F)cc3)c(C#N)c(N)n2)o1 | 12.1
COC(=O)CC(NS(=O)(=O)c1cccs1)c1cccc2ccccc12 (stereo not drawn) | 12.3
CSc1nc2sc3c(c2c(=O)[nH]1)CCC(C)C3 (stereo not drawn) | 20
Cc1ccc(N(CC(=O)NC2CCCC2)C(=O)c2nsc(Cl)c2Cl)cc1 | 6.79
COc1ccc(Br)cc1S(=O)(=O)NCc1ccccc1 | 9.27
COc1ccc([N+](=O)[O-])cc1NC(=O)Cn1ccsc1=N.Cl | 4.34
CC1CCN(CC(=O)Nc2ccccc2-c2ccccc2)CC1 | -22.2
CCOc1ccc(/C=N/NC(=O)C2(O)c3ccccc3-c3ccccc32)cc1 | 11.4
Cc1oc2cc3oc(=O)c(CCC(=O)NCCCN4CCCC4=O)c(C)c3cc2c1C | 2.06
COCCCNC(=O)c1ccc(Cn2c(=O)[nH]c3ccccc3c2=O)cc1 | 12.9
CCN1C(=O)[C@@H]2Cc3c([nH]c4ccccc34)C(c3ccc(OC)cc3)N2C1=S (stereo partly drawn) | 6.42
Cc1ccc(Cn2c(S(=O)(=O)O)nc3ccccc32)cc1 | 12
C/C(CCC(C)C)=N\Nc1ccc(S(N)(=O)=O)cc1[N+](=O)[O-] | 2.32
O=C(Nc1cccnc1)c1ccc(N2CCCC2)c([N+](=O)[O-])c1 | 15.3
Fc1ccccc1Nc1nc2ccccc2n2nnnc12 | 8.79
CCc1oc2c(C)c(O)ccc2c(=O)c1-c1ccc2ccccc2n1 | 15.9
Cc1ccc(C2=NN=C(NC(=O)CSc3nnc4c5ccccc5n(C)c4n3)SC2)cc1 | 8.27
CN(CC(=O)Nc1ccc(F)cc1)C(=O)COC(=O)COc1ccc(C#N)cc1 | 1.25

SMILES | hERG current change (%, negative = inhibition) at 1uM [%]
CCOc1ccc(NC(=S)Nc2cccc3ccccc23)cc1 | 10.6
CCOc1ccc(CNC(=O)CCCOc2cc(=O)n(C)c3ccccc23)cc1 | -5.83
COc1ccc(CNC(=O)Cc2c(C(=O)O)[nH]c3ccccc23)cc1 | 3.03
COC(=O)c1cn(C(=O)c2cc(OC)c(OC)c(OC)c2)c2ccccc12 | 5.38
CCCN(CCC)c1nc(N)nc(-c2cc(Cl)ccc2OC)n1 | 9.99
CC1(c2ccc3noc(-c4cccc(F)c4)c3c2)OCCO1 | 6.35
CC(C)C(=O)Nc1ccc2c(c1)nc(CCN1CCN(c3ccccc3)CC1)n2C | -2.92
CCc1onc(C)c1C(=O)Nc1ccc(N2CCOCC2)cc1 | 15.9
Cc1cc(C(=O)Nc2ccncc2)ccc1[N+](=O)[O-] | -0.659
CC1CCN(c2ccc(C(=O)NCc3cccs3)cn2)CC1 | 16.8
Cc1cccn2c(=O)c3cc(C(=O)O)n(C)c3nc12 | 6.29
CCOc1cccc2sc(N(CCN(CC)CC)C(=O)c3cccc([N+](=O)[O-])c3)nc12.Cl | -44.9
O=C(NCCS(=O)(=O)c1ccc(Br)cc1)c1ccc(Cl)cc1 | 0.0459
Nc1c2c(nc3ccc(Br)cc13)N(c1ccccc1)CC2.O=C(O)C(=O)O | -6.04
CCN1C(=O)NC(c2ccccc2)(c2ccccc2)C1=O | 14.9
Cn1c(=O)c(C(=O)NCC2CCCO2)c(O)c2ccccc21 (stereo not drawn) | 0.171
Nc1ccc(C(=O)Nc2cccc3ncccc23)cc1 | 15.2
CCc1ccc(N2CN(CCc3ccccc3)CNC2=S)cc1 | 13.5
CS(=O)(=O)N1CCN(c2ccc(C(=O)NC3C4CC5CC(C4)CC3C5)cc2[N+](=O)[O-])CC1 (stereo not drawn) | 1.24
CCNC(=S)N/N=C/c1c(C)nn(-c2cccc(Cl)c2)c1Cl | 9.19
O=Cc1ccc(-n2nncc2-c2ccc([N+](=O)[O-])cc2)cc1 | -12.4
COC(=O)C1=C(C)NC2=C(C(=O)CCC2)C1c1cccc(C)n1 (stereo not drawn) | 0.397
COc1ccc(C(=O)c2c(-c3ccsc3)oc3ccc(-c4ccc(OC)cc4)cc23)cc1 | -1.42

SMILES | hERG current change (%, negative = inhibition) at 1uM [%]
Cn1nnc2cc(C(=O)N3CCCCCC3)ccc21 | -12.4
CCCCn1c(N)c(N(CCOC)C(=O)C2CCN(c3ncnc4sc(C)c(C)c34)CC2)c(=O)[nH]c1=O | 4.7
O=C(Nc1c(-c2ccccc2)nc2ccc(Cl)cn12)c1cccs1 | 14.3
COc1ccc(NC(=O)C2CCCN(c3cnccn3)C2)cc1 (stereo not drawn) | 15.3
O=S(=O)(N/N=C\c1cn(-c2ccccc2)nc1-c1ccccc1)c1ccccc1 | 10.1
Cc1cc(C(=O)Nc2ccc(Br)cc2F)n(-c2ccccc2)n1 | 9.9
O=C(Cn1nc(C(=O)O)c2ccccc2c1=O)Nc1cccc(S(=O)(=O)N2CCOCC2)c1 | 6.84
Cc1ccccc1-c1nc(CS(=O)(=O)CC(=O)N2CCc3ccccc32)c(C)o1 | -4.21
NC1=NC[C@H](Cc2ccccc2)N1CCc1cccc(F)c1 | 7.61
CCOC1(C(F)(F)F)NC(=O)N(Cc2ccc(OC)cc2)C1=O (stereo not drawn) | 2.02
COc1ccc(C2=NCCNC(C(F)(F)F)=C2)cc1 | -3.71
CC(=O)n1cc(/C=N/NC(=O)c2ccccc2O)c2ccccc21 | 15
Cn1nc([N+](=O)[O-])c(C(C#N)c2nc3ccccc3n2C)c(Cl)c1=O (stereo not drawn) | 13.6
Cc1ccc(OCC(=O)NCCCNC(=O)c2ccncc2)cc1 | 11
Cc1ccc(S(=O)(=O)N2CCOCC2)cc1C(=O)OC(C)C(=O)c1ccccc1 (stereo not drawn) | 6.3
COc1ccc(NC(=O)COC(=O)CCc2nc3ccccc3c(=O)[nH]2)c(OC)c1 | 5.41
O=[N+]([O-])c1nn(-c2ccc3c(c2)OCCO3)n(O)c1=NCc1ccc(F)cc1Cl | 0.671
O=C(Nc1cnccc1C(F)(F)F)NC1CCCCC1 | 8.7
CCOc1ccc(C(CC(=O)O)NC(=O)c2cccs2)cc1OC (stereo not drawn) | 10.2
CC(=O)NS(=O)(=O)c1ccc(NC(=O)CSc2ccc(C)cc2)cc1 | 11.6
COc1ccccc1NC(=O)Cn1nc(-c2ccc(Cl)cc2)c2ccccc2c1=O | 5.81
CCn1c(C(C)NC(=O)c2cccc(C)c2)nc2ccccc21 (stereo not drawn) | -7.81
CCS(=O)(=O)N1CCCC(C(=O)NC2CCCCC2C)C1 (stereo not drawn) | 0.454

SMILES | hERG current change (%, negative = inhibition) at 1uM [%]
CC(C)=CCN1CCN(Cc2cc(CC(C)C)n[nH]2)CC1CCO (stereo not drawn) | 4.37
O.c1ccc2c(CN3CCN(C4CCCCC4)CC3)c[nH]c2c1 | -3.51
C=CCSc1nc2c(c(=O)[nH]c(=O)n2C)n1Cc1ccccc1 | -2.55
COc1cccc(CN2CC(C(=O)N3CCOCC3)CCC2=O)c1 (stereo not drawn) | 54.7
COc1ccccc1CNC(=O)C(=O)NCC1CCCN1S(=O)(=O)c1cccs1 (stereo not drawn) | 16.1
CCOc1cc(C(=O)N2CCN(c3ccccn3)CC2)cc(OCC)c1OCC | 15.5
Cc1ccc(C(C)NC(=O)Cc2cccs2)c(C)c1 (stereo not drawn) | 9.71
O=C(N/N=C/CCc1ccccc1)C1CCCCC1 | 11.6
O=C(c1ccccc1)N1CCC2(CC1)NCCc1[nH]cnc12 | 16.7
CC(C)(C)NC(=O)COC(=O)c1ccc(S(=O)(=O)N2CCCCCC2)cc1 | 10
COc1ccc(/C(C)=N/NC(=O)c2nnn(-c3nonc3N)c2CN(C)c2ccccc2)cc1 | 8.13
COc1ccc(/C=C/C(=O)ONC2=NCCCCC2)cc1OC | 12.7
CCOc1ccc(S(=O)(=O)Nc2nccs2)cc1 | 15.7
Cc1cc(NC(=O)CCC2CCCC2)no1 | 14.5
COC(=O)Cc1c(C(=O)OC)nnn1-c1cccc(C(F)(F)F)c1 | 9.3
O=C(NCCCN1CCOCC1)c1cc(-c2ccc(Cl)s2)nc2ccccc12 | 4.54
O=C(NCC1CCCO1)C1CCN(S(=O)(=O)c2cccnc2)CC1 (stereo not drawn) | 2.19
O=C(O)c1cccc(-n2cccc2C=C2C(=O)c3ccccc3C2=O)c1 | 11.5
Clc1cccc(/C=N\Nc2nccs2)c1 | -0.404
Cc1ccc(NC(=S)NC2CCN(Cc3ccccc3)CC2)c(C)c1 | -0.78
Cc1ccc(NC(=O)Cc2ccc3c(c2)CCCC3)cc1C | -4.05
